PubChem BioAssay (Tox21)
Inconclusive means that the source gave no clear call. Such entries were picked first, then a sample of the others. Potencies of inconclusive entries are left out as doubtful fits. The source made the active and inactive calls. The call rests on the fitted dose curve; in most records, active means well fitted inhibition curve with a large enough effect in the repeat runs; inconclusive means weak or mixed curves, or effect the other way; inactive means no such curve, though single readings can be large or run the other way.

Experiment: qHTS assay to identify small molecule antagonists of the retinoic acid receptor (RAR) signaling pathway (AID 1159552; further: nearly all actives have a fitted effect of over 50% in size)
Conditions: C3RL4 RARE luciferase reporter, retinol-stimulated, 6 h; series mostly up to 92.4 µM; activity, negative = inhibition: at the top concentration
Procedure, shortened: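 Retinol signaling pathway inhibitors screened in C3RL4 RARE-luciferase reporter cells seeded overnight at 37 C, then compounds added with 1 uM (final) retinol as pathway substrate. After 6 hr at 37 C, luciferase luminescence read after 30 min at room temperature.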
On the % scale 0 is the no-effect control and ±100 the full control effect; potency means the concentration at half of the fitted maximal effect; tags describe the fitted curve by direction and shape.

Compound | Potency | activity, negative = inhibition
CC(C)(C)C(=O)OCOC(=O)[C@@H]1N2C(=O)[C@@H](NC(=O)[C@H](N)c3ccccc3)[C@H]2SC1(C)C | inconclusive [inhibitor, partial curve] | 
CC(CO)(CO)CO |  | inactive: 5.94%
Nc1c(Cl)cc(Cl)cc1[N+](=O)[O-] | inconclusive [inhibitor, partial curve, poor fit] | 
O=[N+]([O-])c1cccc(S(=O)(=O)O)c1 | inconclusive [inhibitor, partial curve, poor fit] | 
CCCCCc1ccco1 | inconclusive [inhibitor, full curve] | 
CCCOC(=O)c1c(Cl)c(Cl)c(Cl)c(Cl)c1C(=O)OCCC |  | inactive: 34.9%
CC[C@H]1OC(=O)[C@H](C)[C@@H](O[C@H]2C[C@@](C)(OC)[C@@H](O)[C@H](C)O2)[C@H](C)[C@@H](O[C@@H]2O[C@H](C)C[C@H](N(C)C)[C@H]2O)[C@](C)(O)C[C@@H](C)/C(=N\OCOCCOC)[C@H](C)[C@@H](O)[C@]1(C)O | inconclusive [inhibitor, partial curve, poor fit] | 
O=C(O)/C=C/c1ccc(O)c(O)c1 |  | inactive: 1.38%
Cc1cccc(CN2CCN(C(c3ccccc3)c3ccc(Cl)cc3)CC2)c1 (stereo not drawn) | inconclusive [inhibitor, single point] | 
COc1cc(NC(C)CCCN)c2ncccc2c1 (stereo not drawn) | inconclusive [inhibitor, partial curve] | 
CC[C@@H]([C@H](C)O)n1ncn(-c2ccc(N3CCN(c4ccc(OC[C@@H]5CO[C@@](Cn6cncn6)(c6ccc(F)cc6F)C5)cc4)CC3)cc2)c1=O | inconclusive [inhibitor, partial curve] | 
CCCC/C=C/C=C\C=O | inconclusive [inhibitor, partial curve, poor fit] | 
Cc1c[nH]c2ccccc12 | inconclusive [inhibitor, partial curve, poor fit] | 
CCCCC/C=C\C/C=C\CCCCCCCC(=O)OC | inconclusive [inhibitor, partial curve] | 
COc1ccc(-c2cc(C(F)F)nn2-c2ccc(S(N)(=O)=O)cc2)cc1F | inconclusive [inhibitor, partial curve, poor fit] | 
OCCCCC(O)CO (stereo not drawn) | inconclusive [inhibitor, full curve] | 
C(=C\c1ccccc1)/CN1CCN(C(c2ccccc2)c2ccccc2)CC1 | inconclusive [inhibitor, partial curve, poor fit] | 
COC(=O)c1ccccc1C |  | inactive: 7.4%
C/C(C=O)=C\c1ccccc1 | inconclusive [inhibitor, partial curve, poor fit] | 

Compound | Potency | activity, negative = inhibition
CC(=O)SC[C@@H](Cc1ccccc1)C(=O)NCC(=O)OCc1ccccc1 |  | inactive: 2.71% [at 42.5 µM]
N[C@@H](Cc1cc(I)c(O)c(I)c1)C(=O)O | inconclusive [inhibitor, partial curve, poor fit] | 
O=C(O)CCC(=O)OC[C@@H](NC(=O)C(Cl)Cl)[C@H](O)c1ccc([N+](=O)[O-])cc1 |  | inactive: -5.63% [at 42.5 µM]
COS(=O)(=O)C(F)(F)F | inconclusive [inhibitor, single point] | 
NC(=O)N(O)[C@@H]1COc2cc(OCc3ccccc3)ccc21 | inconclusive [inhibitor, full curve, poor fit] | 
CCCCCCCCCCCCCCCC(=O)OCC | inconclusive [inhibitor, full curve, poor fit] | 
O=S(=O)(O)c1ccc(N=Nc2c(O)ccc3ccccc23)cc1 | inconclusive [inhibitor, partial curve, poor fit] | 
Cc1[nH]cnc1C[C@H]1CCc2c(C)c3ccccc3n2C1=O | inconclusive [inhibitor, single point] | 
COc1ccc2cccc(CCNC(C)=O)c2c1 |  | inactive: -1.57% [at 42.5 µM]
CCCCCCCCS |  | inactive: -14.3%
c1cnccn1 |  | inactive: -1.71%
C=CCOC(=O)C(=C)C | inactive | 
O=C1CCCN1CCO | inconclusive [inhibitor, partial curve, poor fit] | 
[Cl][Nd]([Cl])[Cl] | inconclusive [inhibitor, partial curve, poor fit] | 
Nc1nc(Cl)nc2c1ncn2[C@@H]1O[C@H](CO)[C@@H](O)[C@@H]1F | inconclusive [inhibitor, full curve] | 
CN(C)CC/C=C1\c2ccccc2COc2ccccc21 | active: 21.1 µM | 
COC1=CC(=O)C[C@@H](C)[C@]12Oc1c(Cl)c(OC)cc(OC)c1C2=O | active: 9.6 µM | 
CC(C)CCCO | inconclusive [inhibitor, full curve] | 
Nc1ccn([C@@H]2O[C@H](CO)[C@@H](O)C2O)c(=O)n1 (stereo partly drawn) | inconclusive [inhibitor, partial curve] | 
